Data on 30 molecules can be found in the supplement of paper PMC4604168 (melanoma cell lines).

This is one part of the list. Single values are uncertain, as repeats are few or missing.
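Further: cell number obtained by counting DAPI-stained nuclei in high-throughput microscope images with image analysis software, screen run in 1,536-well plates.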

This assay deals with WM3526. Kind of assay: cell count relative to DMSO control; melanoma cells; higher = more viable cells. The note with it: library dose: low library concentration; 72 h.
Consider `O=C(O)[C@@H]1[O][Sb](=[O])([O][Sb]2(=[O])[O][C@H]([C@H](O)CO)[C@H](O)[C@H](C(=O)O)[O]2)[O][C@H]([C@H](O)CO)[C@@H]1O` (stereo not given in full) [stibogluconate] + CN(C)S(=O)(=O)c1ccc2c(c1)/C(=C/c1cc3c([nH]1)CCCC3)C(=O)N2 [SU6656] (first compound 2 µM, partner dose 0.4 µM), for which the cell count was 105%. Consider `O=C(O)c1ccc2c(c1)nc(Nc1cccc(Cl)c1)c1ccncc12` + C[C@]1(c2nc3c(C(N)=O)cccc3[nH]2)CCCN1 [Veliparib] (first compound 0.4 µM, partner dose 1.4 µM), for which the cell count is 77.8%. Molecule `O=C(Nc1cc(C(F)(F)F)cc(C(F)(F)F)c1)c1cc(Cl)ccc1O` + NC(=O)c1ccc(N(C(N)=O)c2c(F)cccc2F)nc1-c1ccc(F)cc1F [VX702] (first compound 0.016 µM, partner dose 0.4 µM) showed a cell count of 103%. The molecule `O=C(Nc1cc(C(F)(F)F)cc(C(F)(F)F)c1)c1cc(Cl)ccc1O` + Cn1cnc2c(F)c(Nc3ccc(Br)cc3Cl)c(C(=O)NOCCO)cc21 [selumetinib] (first compound 0.016 µM, partner dose 0.015 µM) returned a cell count of 89.7%. Turning to `O=C(O)c1ccc2c(c1)nc(Nc1cccc(Cl)c1)c1ccncc12` + O=C1NC(=O)/C(=C/c2ccc(-c3ccc(F)cc3O)o2)S1 [AS252424] (first compound 0.4 µM, partner dose 1 µM), the cell count was determined as 87.3%. The molecule `O=C(Nc1cc(C(F)(F)F)cc(C(F)(F)F)c1)c1cc(Cl)ccc1O` + O=C(O)[C@@H]1[O][Sb](=[O])([O][Sb]2(=[O])[O][C@H]([C@H](O)CO)[C@H](O)[C@H](C(=O)O)[O]2)[O][C@H]([C@H](O)CO)[C@@H]1O [stibogluconate] (first compound 0.016 µM, partner dose 2 µM) had a cell count of 103%. As for `O=C(O)c1ccc2c(c1)nc(Nc1cccc(Cl)c1)c1ccncc12` + OCc1c[nH]c2ccccc12 [Indole-3-carbinol] (first compound 0.4 µM, partner dose 0.8 µM), the cell count worked out at 83%. `O=C(Nc1cc(C(F)(F)F)cc(C(F)(F)F)c1)c1cc(Cl)ccc1O` + COc1cc2ncnc(Nc3ccc(Oc4ccccc4)cc3)c2cc1OC [SrcI1] (first compound 0.016 µM, partner dose 2 µM) came in with a cell count of 77.3%. `O=C(O)[C@@H]1[O][Sb](=[O])([O][Sb]2(=[O])[O][C@H]([C@H](O)CO)[C@H](O)[C@H](C(=O)O)[O]2)[O][C@H]([C@H](O)CO)[C@@H]1O` (stereo not given in full) [stibogluconate] + COc1cc(Nc2ncc(F)c(Nc3ccc4c(n3)NC(=O)C(C)(C)O4)n2)cc(OC)c1OC [Tamatinib] (first compound 2 µM, partner dose 0.4 µM) yielded a cell count of 84.9%.

In turn, `O=C(Nc1cc(C(F)(F)F)cc(C(F)(F)F)c1)c1cc(Cl)ccc1O` + CC1(C)CCC(c2ccc(Cl)cc2)=C(CN2CCN(c3ccc(C(=O)NS(=O)(=O)c4ccc(N[C@H](CCN5CCOCC5)CSc5ccccc5)c(S(=O)(=O)C(F)(F)F)c4)cc3)CC2)C1 [ABT263] (first compound 0.016 µM, partner dose 0.4 µM) showed a cell count of 85.7%. `O=C(Nc1cc(C(F)(F)F)cc(C(F)(F)F)c1)c1cc(Cl)ccc1O` + CC(C)CCN1c2nc(Nc3cc(F)c(O)c(F)c3)ncc2N(C)C(=O)C1C [BID1870] (first compound 0.016 µM, partner dose 0.2 µM) yielded a cell count of 105%. `O=C(Nc1cc(C(F)(F)F)cc(C(F)(F)F)c1)c1cc(Cl)ccc1O` + O=C(Nc1cccc(Cl)c1)Nc1ncc(CCNc2ncnc3ccsc23)s1 [SNS314] (first compound 0.016 µM, partner dose 0.0008 µM) registered a cell count of 101%. The same measure for `O=C(O)[C@@H]1[O][Sb](=[O])([O][Sb]2(=[O])[O][C@H]([C@H](O)CO)[C@H](O)[C@H](C(=O)O)[O]2)[O][C@H]([C@H](O)CO)[C@@H]1O` (stereo not given in full) [stibogluconate] + CCc1ccc(CCOc2ccc(CC3SC(=O)NC3=O)cc2)nc1 [pioglitazone] (first compound 2 µM, partner dose 2 µM): 94.5%; for `O=C(O)[C@@H]1[O][Sb](=[O])([O][Sb]2(=[O])[O][C@H]([C@H](O)CO)[C@H](O)[C@H](C(=O)O)[O]2)[O][C@H]([C@H](O)CO)[C@@H]1O` (stereo not given in full) [stibogluconate] + O=C(O)C(=O)Nc1sc2c(c1C(=O)O)CCNC2 [TCS401] (first compound 2 µM, partner dose 1.66667 µM): 103%. `O=C(Nc1cc(C(F)(F)F)cc(C(F)(F)F)c1)c1cc(Cl)ccc1O` + CS(=O)(=O)c1ccc(C(=O)Nc2ccc(Cl)c(-c3ccccn3)c2)c(Cl)c1 [vismodegib] (first compound 0.016 µM, partner dose 1 µM) came in with a cell count of 126%. On to `O=C(Nc1cc(C(F)(F)F)cc(C(F)(F)F)c1)c1cc(Cl)ccc1O` + COc1ccc(Cl)c(Nc2nc3ccccc3nc2NS(=O)(=O)c2cccc(NC(=O)C(C)(C)N)c2)c1 [XL147] (first compound 0.016 µM, partner dose 0.8 µM), for which the cell count was 91.9%. `O=C(O)c1ccc2c(c1)nc(Nc1cccc(Cl)c1)c1ccncc12` + Cn1nnc2c(C(N)=O)ncn2c1=O [temozolomide] (first compound 0.4 µM, partner dose 2 µM) came in with a cell count of 80.2%. The same measure for `O=C(O)c1ccc2c(c1)nc(Nc1cccc(Cl)c1)c1ccncc12` + CC1(C)NC(=O)N(c2ccc([N+](=O)[O-])c(C(F)(F)F)c2)C1=O [nilutamide] (first compound 0.4 µM, partner dose 1 µM): 82.6%; for `O=C(O)c1ccc2c(c1)nc(Nc1cccc(Cl)c1)c1ccncc12` + Oc1nc(-c2ccc(C(F)(F)F)cc2)nc2c1CSCC2 [XAV939] (first compound 0.4 µM, partner dose 2 µM): 39.4%. With `O=C(O)[C@@H]1[O][Sb](=[O])([O][Sb]2(=[O])[O][C@H]([C@H](O)CO)[C@H](O)[C@H](C(=O)O)[O]2)[O][C@H]([C@H](O)CO)[C@@H]1O` (stereo not given in full) [stibogluconate] + C#Cc1cccc(Nc2ncnc3cc(OCCOC)c(OCCOC)cc23)c1 [erlotinib] (first compound 2 µM, partner dose 0.8 µM), the cell count turned out to be 104%. In the case of `O=C(O)[C@@H]1[O][Sb](=[O])([O][Sb]2(=[O])[O][C@H]([C@H](O)CO)[C@H](O)[C@H](C(=O)O)[O]2)[O][C@H]([C@H](O)CO)[C@@H]1O` (stereo not given in full) [stibogluconate] + C[C@@H]1CCN(C(=O)CC#N)C[C@@H]1N(C)c1ncnc2[nH]ccc12 [CP690550] (first compound 2 µM, partner dose 1 µM), the cell count is 101%. Take `O=C(O)[C@@H]1[O][Sb](=[O])([O][Sb]2(=[O])[O][C@H]([C@H](O)CO)[C@H](O)[C@H](C(=O)O)[O]2)[O][C@H]([C@H](O)CO)[C@@H]1O` (stereo not given in full) [stibogluconate] + OCc1c[nH]c2ccccc12 [Indole-3-carbinol] (first compound 2 µM, partner dose 0.8 µM): the cell count was 83.9%. Consider `O=C(Nc1cc(C(F)(F)F)cc(C(F)(F)F)c1)c1cc(Cl)ccc1O` + Clc1ccc(Nc2nnc(Cc3ccncc3)c3ccccc23)cc1 [vatalanib] (first compound 0.016 µM, partner dose 2 µM), for which the cell count stood at 110%.

The molecule `O=C(Nc1cc(C(F)(F)F)cc(C(F)(F)F)c1)c1cc(Cl)ccc1O` + CN(NC(=O)CC(=O)NN(C)C(=S)c1ccccc1)C(=S)c1ccccc1 [STA4783] (first compound 0.016 µM, partner dose 0.006 µM) yielded a cell count of 111%. In turn, `O=C(Nc1cc(C(F)(F)F)cc(C(F)(F)F)c1)c1cc(Cl)ccc1O` + COCC[n+]1c2c(n(Cc3cnccn3)c1C)C(=O)c1ccccc1C2=O [YM155] (first compound 0.016 µM, partner dose 0.0004 µM) came in with a cell count of 101%. For the molecule `O=C(Nc1cc(C(F)(F)F)cc(C(F)(F)F)c1)c1cc(Cl)ccc1O` + O=C(O)c1ccc2c(c1)nc(Nc1cccc(Cl)c1)c1ccncc12 [CX4945] (first compound 0.016 µM, partner dose 0.4 µM), the cell count is 103%. For the molecule `O=C(Nc1cc(C(F)(F)F)cc(C(F)(F)F)c1)c1cc(Cl)ccc1O` + CCCCCCCCCCCCCCCCCCOP(=O)([O-])OC1CC[N+](C)(C)CC1 [Perifosine] (first compound 0.016 µM, partner dose 0.4 µM), the cell count stood at 91.7%. `O=C(O)c1ccc2c(c1)nc(Nc1cccc(Cl)c1)c1ccncc12` + NC(=O)Nc1cc(-c2cccc(F)c2)sc1C(=O)N[C@H]1CCCNC1 [AZD7762] (first compound 0.4 µM, partner dose 0.02 µM): the cell count worked out at 69.4%. Take `O=C(Nc1cc(C(F)(F)F)cc(C(F)(F)F)c1)c1cc(Cl)ccc1O` + C#Cc1cccc(Nc2ncnc3cc(OCCOC)c(OCCOC)cc23)c1 [erlotinib] (first compound 0.016 µM, partner dose 0.8 µM): the cell count was found to be 85%. Take `O=C(O)[C@@H]1[O][Sb](=[O])([O][Sb]2(=[O])[O][C@H]([C@H](O)CO)[C@H](O)[C@H](C(=O)O)[O]2)[O][C@H]([C@H](O)CO)[C@@H]1O` (stereo not given in full) [stibogluconate] + Nc1nc(F)nc2c1ncn2[C@@H]1O[C@H](CO)[C@@H](O)[C@@H]1O [fludarabine] (first compound 2 µM, partner dose 0.2 µM): the cell count worked out at 31.8%.
